# These are yes or no findings as the source states them, for the method shown. For some assays here: In cells and extracts the contact can be indirect. Some entries that bind do so weakly or less than the wild type.
# Sequences of proteins named here, by UniProt entry; tags and fusion partners are left off.
# UniProt Q9GZV5: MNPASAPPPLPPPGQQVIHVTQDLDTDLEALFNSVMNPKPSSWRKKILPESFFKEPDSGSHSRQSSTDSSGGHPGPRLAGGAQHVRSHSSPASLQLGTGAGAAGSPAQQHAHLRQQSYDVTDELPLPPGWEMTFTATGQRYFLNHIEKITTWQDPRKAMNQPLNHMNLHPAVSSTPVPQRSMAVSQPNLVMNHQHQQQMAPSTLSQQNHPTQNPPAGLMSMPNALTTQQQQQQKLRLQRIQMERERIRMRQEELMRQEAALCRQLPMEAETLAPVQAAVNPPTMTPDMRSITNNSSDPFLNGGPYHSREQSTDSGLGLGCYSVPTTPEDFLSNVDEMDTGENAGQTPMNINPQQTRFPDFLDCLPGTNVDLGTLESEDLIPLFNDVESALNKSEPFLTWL
# UniProt P46937: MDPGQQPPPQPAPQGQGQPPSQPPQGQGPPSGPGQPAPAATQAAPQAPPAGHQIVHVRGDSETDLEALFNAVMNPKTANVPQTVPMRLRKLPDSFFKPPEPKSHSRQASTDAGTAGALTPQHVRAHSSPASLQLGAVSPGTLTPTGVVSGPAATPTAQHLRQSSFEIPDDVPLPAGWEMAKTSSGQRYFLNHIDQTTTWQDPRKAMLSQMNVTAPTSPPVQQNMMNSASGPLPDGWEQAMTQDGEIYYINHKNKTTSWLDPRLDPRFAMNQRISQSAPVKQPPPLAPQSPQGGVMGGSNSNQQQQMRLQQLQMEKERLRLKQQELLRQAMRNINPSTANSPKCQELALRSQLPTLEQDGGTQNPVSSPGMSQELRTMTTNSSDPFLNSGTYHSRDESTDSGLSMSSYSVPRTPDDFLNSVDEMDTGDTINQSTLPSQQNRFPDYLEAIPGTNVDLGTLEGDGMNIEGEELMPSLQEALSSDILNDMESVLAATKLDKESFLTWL
# UniProt P40763: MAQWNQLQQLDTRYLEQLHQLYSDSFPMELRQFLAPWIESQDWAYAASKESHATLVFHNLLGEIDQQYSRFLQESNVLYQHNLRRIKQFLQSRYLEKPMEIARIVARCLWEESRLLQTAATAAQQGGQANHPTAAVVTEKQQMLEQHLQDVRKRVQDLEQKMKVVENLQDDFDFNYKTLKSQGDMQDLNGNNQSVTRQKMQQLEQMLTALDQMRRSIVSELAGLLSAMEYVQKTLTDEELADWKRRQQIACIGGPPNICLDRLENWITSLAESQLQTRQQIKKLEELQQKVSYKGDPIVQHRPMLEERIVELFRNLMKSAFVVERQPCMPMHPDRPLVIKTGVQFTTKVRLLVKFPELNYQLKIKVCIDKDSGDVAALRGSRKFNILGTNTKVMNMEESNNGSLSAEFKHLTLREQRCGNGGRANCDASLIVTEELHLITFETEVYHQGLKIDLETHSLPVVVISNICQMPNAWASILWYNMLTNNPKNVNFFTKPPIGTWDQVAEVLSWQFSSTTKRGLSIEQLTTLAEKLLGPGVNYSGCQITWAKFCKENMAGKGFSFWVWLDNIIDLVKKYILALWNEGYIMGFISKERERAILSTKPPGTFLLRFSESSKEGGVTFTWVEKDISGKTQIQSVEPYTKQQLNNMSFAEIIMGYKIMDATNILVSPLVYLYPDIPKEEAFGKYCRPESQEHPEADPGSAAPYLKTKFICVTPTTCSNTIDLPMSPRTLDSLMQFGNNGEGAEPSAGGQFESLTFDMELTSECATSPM
# Legend:
# [1] = target: His-tagged recombinant TAZ (UniProt Q9GZV5); assay: co-IP; in vitro, pairs of E. coli-generated His-tagged recombinant proteins; co-IP procedure similar to that for lysates; western blot of input (10%) and IP; both purified
# [2] = target: HA-tagged TAZ (wild type) (UniProt Q9GZV5); assay: co-IP; HA-tagged YAP or TAZ derivatives co-expressed with FLAG-tagged STAT3 or JUNB in 293T cells for 2 days; IP with anti-HA antibody or control IgG, Dynabead protein G; co-IP buffer 50 mM Tris pH 7.5, 100 mM NaCl, 1.5 mM EGTA, 0.1% Triton X-100; 4°C overnight
# [3] = target: TAZ (human (endogenous in MCF-10A-ER-Src)) (UniProt Q9GZV5); assay: co-IP; endogenous proteins in nucleoplasm and chromatin fractions of non-transformed (ethanol) and transformed (tamoxifen) MCF-10A-ER-Src cells; antibodies against the indicated proteins or IgG control, Dynabead protein G; co-IP buffer 50 mM Tris pH 7.5, 100 mM NaCl, 1.5 mM EGTA, 0.1% Triton X-100; 4°C overnight; co-IP in general more efficient in transformed cells
# [4] = target: YAP (human (endogenous in MCF-10A-ER-Src)) (UniProt P46937); assay: co-IP; endogenous proteins in the cytoplasm fraction of non-transformed (ethanol) and transformed (tamoxifen) MCF-10A-ER-Src cells; antibodies against the indicated proteins or IgG control, Dynabead protein G; co-IP buffer 50 mM Tris pH 7.5, 100 mM NaCl, 1.5 mM EGTA, 0.1% Triton X-100; 4°C …
# [5] = target: TAZ (human (endogenous in MCF-10A-ER-Src)) (UniProt Q9GZV5); assay: as above
substance,measurement,setting,value
His-tagged recombinant STAT3 (from UniProt P40763 1-770),binding,[1],binds
FLAG-tagged STAT3 (from UniProt P40763 1-770),binding,[2],binds
STAT3 (from UniProt P40763 1-770),binding,[3],binds
same,binding,[4],no binding (condition: cytoplasm fraction)
same,binding,[5],no binding (condition: cytoplasm fraction)

# Source: PMC8463077
